# The list shows a part of the results. The main result of the screen is listed elsewhere. These columns were measured beside it and carry no call.
# Legend:
# Assay in all cases: Primary Screen for Target Class Profiling of Small Molecule Inhibitors of Methyltransferases
# [1] = target: Glycine N-methyltransferase (Homo sapiens) (UniProt Q14749); conditions: purified enzyme, MTase-Glo SAH luminescence; measured here: GNMT inhibition; at 40 µM; stronger effect = lower value
# Summary of the method: (§1)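 Each enzyme was reacted with SAM and its substrate, with compounds tested once at 40 uM; SAH formed was read by MTase-Glo luminescence.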
# [2] = target: Guanidinoacetate N-methyltransferase (Homo sapiens) (UniProt Q14353); conditions: purified enzyme, MTase-Glo SAH luminescence; measured here: GAMT inhibition; at 40 µM; stronger effect = lower value
# Summary of the method: as §1
# [3] = target: Histamine N-methyltransferase (Homo sapiens) (UniProt P50135); conditions: purified enzyme, MTase-Glo SAH luminescence; measured here: HNMT inhibition; at 40 µM; stronger effect = lower value
# Summary of the method: as §1
# [4] = target: Nicotinamide N-methyltransferase (Homo sapiens) (UniProt P40261); conditions: purified enzyme, MTase-Glo SAH luminescence; measured here: NNMT inhibition; at 40 µM; stronger effect = lower value
# Summary of the method: as §1
# [5] = target: Phenylethanolamine N-methyltransferase (Homo sapiens) (UniProt P11086); conditions: purified enzyme, MTase-Glo SAH luminescence; measured here: PNMT inhibition; at 40 µM; stronger effect = lower value
# Summary of the method: as §1
# On the % scale 0 is the no-effect control and ±100 the full control effect.
Compound,"activity change, negative = inhibition [1]","activity change, negative = inhibition [2]","activity change, negative = inhibition [3]","activity change, negative = inhibition [4]","activity change, negative = inhibition [5]"
CCC(C)NC(=O)c1ccc2c(=O)n(C(C)C)c3nn(CC(=O)Nc4cccc(Cl)c4)c(=O)n3c2c1 (stereo not given),4.11%,4.13%,4.19%,-0.36%,2.18%
Cn1c(=O)c2ccc(C(=O)NC3CCCC3)cc2n2c(=O)n(CC(=O)c3ccc(F)cc3)nc12,2.21%,4.79%,-0.813%,-3.58%,-0.325%
CCOC(=O)C1CCC(CNC(=O)N2CCn3cccc3C2C(C)C)CC1 (stereo not given),6.77%,1.38%,3.19%,1.25%,5.5%
O=C(c1cc(F)ccc1F)N1CCCCC1c1nc(-c2cnccn2)n[nH]1 (stereo not given),-1.5%,-0.998%,0.205%,-3.26%,0.767%
CCOc1ccc(CN2C(=O)c3c(C(=O)OC)ncn3CC2(C)C(=O)NC2CCCC2)cc1OC (stereo not given),1.94%,3.22%,6.39%,1.55%,1.59%
Cc1ccc(Cn2c(=O)c3ccccc3n3c(=O)n(CC(=O)Nc4ccccc4F)nc23)cc1,-0.767%,2.62%,2.34%,0.949%,1.17%
Cc1ccc(C(=O)Cn2nc3n(Cc4ccc(F)cc4)c(=O)c4ccccc4n3c2=O)cc1,7%,1.32%,11.4%,10.4%,8.92%
CCCn1c(=O)c2ccc(C(=O)NC(C)CC)cc2n2c(=O)n(Cc3ccccc3C)nc12 (stereo not given),1.35%,0%,6.52%,-0.223%,3.35%
CC1CCC(NC(=O)Cn2ccc3cc(S(=O)(=O)N4CCC(C)CC4)ccc32)CC1 (stereo not given),-0.903%,3.54%,-1.26%,-1.07%,-3.87%
Cc1ccc(C(=O)N(Cc2ccccc2)S(=O)(=O)c2ccc3c(c2)n(C)c(=O)n3C)cc1,-1.73%,0%,-9.01%,-3.35%,-1.33%
CC(=O)N1C[C@@H](NC(=O)Nc2ccc(F)cc2F)C[C@H]1C(=O)N[C@H](Cc1c[nH]c2ccccc12)C(N)=O,-0.575%,1.14%,-0.721%,1.17%,1.86%
COc1cccc(CN2C(=O)c3cc4occc4n3CC2(C)C(=O)NC2CCC(C)CC2)c1 (stereo not given),-3.49%,0%,2.36%,-22.7%,-0.936%
CCOC(=O)c1cc2n(n1)CC(C)(C(=O)NC1CCCCCC1)N(c1ccc3c(c1)OCO3)C2=O (stereo not given),4.05%,0%,4.6%,2.58%,4.54%
CC(=O)Nc1c2n(c3ccc(F)cc13)CC(C)(C(=O)NC1CCCC1)N(Cc1cccs1)C2=O (stereo not given),-12%,1.32%,-1.25%,-3.35%,-3.07%
O=S(=O)(NCCc1nc2ccccc2n1S(=O)(=O)c1ccccc1)c1ccccc1,1.42%,10.6%,3.42%,11.1%,1.21%
O=C(O)c1cc(O[C@@H]2O[C@H](CO[C@@H]3OC[C@@H](O)[C@H](O)[C@H]3O)[C@@H](O)[C@H](O)[C@H]2O)c2ccccc2c1O,-15.8%,-3.4%,5.28%,-14%,-41.1%

# Reference: PubChem BioAssay AID1745853 (National Center for Advancing Translational Sciences (NCATS), 2022)
